Drawing on PubChem BioAssay AID488969 (Vanderbilt High Throughput Screening Facility, 2010), this text covers z-score for 72 molecules.

Over roughly 110,000 compounds, “z-score” has its median near -0.1; the highest 2% begin near 2. The list shows a part of the results.

The target in this experiment is Metabotropic glutamate receptor 8 (Rattus norvegicus) (UniProt P70579). Description: rat mGluR8 modulators via GIRK flux, primary screen, cell-based, thallium flux, HTS (AID 488969). Particulars: HEK293 rat mGluR8, GIRK (G protein-gated inwardly rectifying potassium channel) thallium flux, FluoZin2; at 10 µM; stronger effect = higher value; submaximal glutamate (EC20) added with thallium.
UniProt P70579, sequence (P70579 whole entry, looked up): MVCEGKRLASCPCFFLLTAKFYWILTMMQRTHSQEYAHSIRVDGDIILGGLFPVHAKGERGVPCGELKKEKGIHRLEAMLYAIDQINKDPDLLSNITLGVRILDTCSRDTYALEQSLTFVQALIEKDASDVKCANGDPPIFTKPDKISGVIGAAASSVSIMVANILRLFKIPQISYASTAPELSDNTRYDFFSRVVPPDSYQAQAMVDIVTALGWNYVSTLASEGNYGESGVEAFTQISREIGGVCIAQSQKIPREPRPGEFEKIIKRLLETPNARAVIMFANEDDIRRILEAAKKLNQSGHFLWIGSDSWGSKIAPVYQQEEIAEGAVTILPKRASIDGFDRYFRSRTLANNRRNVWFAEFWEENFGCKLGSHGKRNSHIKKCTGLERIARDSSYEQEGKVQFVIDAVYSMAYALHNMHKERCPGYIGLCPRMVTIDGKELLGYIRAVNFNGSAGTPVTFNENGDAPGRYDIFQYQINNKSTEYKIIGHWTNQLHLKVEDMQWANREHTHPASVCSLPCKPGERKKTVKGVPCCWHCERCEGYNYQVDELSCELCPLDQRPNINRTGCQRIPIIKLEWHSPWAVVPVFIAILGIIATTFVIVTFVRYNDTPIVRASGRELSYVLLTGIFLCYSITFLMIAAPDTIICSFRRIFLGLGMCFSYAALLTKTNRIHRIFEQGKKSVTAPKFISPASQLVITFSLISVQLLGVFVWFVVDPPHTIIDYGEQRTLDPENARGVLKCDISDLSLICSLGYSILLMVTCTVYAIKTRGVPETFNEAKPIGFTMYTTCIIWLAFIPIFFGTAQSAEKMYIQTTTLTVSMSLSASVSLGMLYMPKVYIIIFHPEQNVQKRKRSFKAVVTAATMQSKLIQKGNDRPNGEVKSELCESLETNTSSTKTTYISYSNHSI
`CC/C(=N\NC(=O)c1ccncc1)C12CC3CC(CC(C3)C1)C2` had a z-score of 0.0155.
`O=C(CCN1CCCCCC1)Nc1ccccc1F`: the z-score turned out to be 0.0555.
Under `O=C(NCc1ccccc1)c1c[nH]c2cc3c(cc2c1=O)OCCO3` stands -0.348; under `Cc1cccc(OC(C)c2ccnc3nc(/N=C/N(C)C)nn23)c1` (configuration not stated), -0.0572.
The molecule `O=C(Cc1ccccc1)Nc1cccc(N2CCCC2)c1` came in with a z-score of -0.184.
Molecule `CCn1cnc2cc(NCc3ccncc3)ccc21` had a z-score of -0.597.
Under `CCOc1ccc(NC(=O)NCCCN2CCCC2)cc1` stands -0.357.
Under `O=c1[nH]c2ccccc2nc1C(F)(F)C(F)F` stands -0.967; under `CCn1c(SCC(=O)Nc2nccs2)nnc1-c1cc2cccc(OC)c2o1`, -0.59.
Under `Cc1ccc(CNc2nc3ccc(C)cc3n3cnnc23)cc1` stands 0.269; under `COc1cccc(-c2cc(C(F)(F)F)nc(N3CCOCC3)n2)c1`, 0.839; under `Cc1onc(-c2ccccc2Cl)c1C(=O)Nc1ccc(F)c(F)c1`, -0.468.
Molecule `Cc1ccc(-n2nc3ccc(NC(=O)c4cccc([N+](=O)[O-])c4C)cc3n2)cc1` gave a z-score of -0.288.
The molecule `COc1ccc(OC)c(NS(=O)(=O)c2ccc(SC)cc2)c1` had a z-score of -0.532.
Under `CCOc1ccccc1N(CC(=O)Nc1cccnc1)S(C)(=O)=O` stands 0.287; under `CCC(C)NC(=O)c1c(N)n(/N=C/c2cccnc2)c2nc3ccccc3nc12` (configuration not stated), -0.365.
As to `CC1CN(C(=O)C2CC2)C(C)CN1C(=O)C1CC1` (configuration not stated), the z-score was 0.00492.
As for `COc1ccc(OC)c(-c2csc(NC(=O)CSc3ccccc3)n2)c1`, the figure is -0.332.
As for `O=C(COC(=O)/C=C/c1ccc(Cl)cc1Cl)NCCC1=CCCCC1`, the figure is 0.107.
As for `Cc1ccc(CNC(=S)Nc2ccc(C)c([N+](=O)[O-])c2)cc1`, the figure is 0.255; as for `O=C(Nc1ccc2c(c1)CCC2)c1ccccc1F`, -0.203.
On to `CCCOc1ccc(C(CC(=O)O)NS(=O)(=O)c2ccc(NC(C)=O)cc2)cc1` (configuration not stated), for which the z-score is -0.0811.
As for `COc1ccc(-c2nsc(SCC(=O)Nc3cc(C)on3)n2)cc1`, the figure is -0.842.
As for `COc1ccc2c(C(F)(F)F)cc(=O)oc2c1C`, the figure is -0.282; as for `CCOC(=O)CC(=O)CSc1nc(-c2ccccc2)cc(-c2ccc(Cl)cc2)c1C#N`, -0.159; as for `O=[N+]([O-])c1cc2c(cc1/C=N/n1c(-c3ccccn3)n[nH]c1=S)OCO2`, 0.264.
Under `O=C(CSc1ccc(Cl)cc1)Nc1cccc(-c2nc3ncccc3o2)c1` stands -0.243; under `CSc1ccc(S(=O)(=O)Nc2ccc(F)cc2)cc1`, 0.444; under `CCOC(=O)C1CCN(S(=O)(=O)c2ccc(CC)cc2)CC1`, 0.476.
Take `O=C(C1CCCCC1)N1CCN(c2ncccn2)CC1`: the z-score was 0.498.
Under `COC(=O)C1=C(C(=O)OC)C(c2cc(Br)ccc2O)c2sc(=O)[nH]c2S1` (configuration not stated) stands 0.749; under `CCN(c1ccccc1)S(=O)(=O)c1ccc(N)cc1`, -0.101; under `Cc1cc(C)cc(NC(=O)c2ccc(CSc3nnnn3C)cc2)c1`, -0.11.
As for `Cc1cc(S(=O)(=O)Nc2ccc(N(C)C)cc2)c(C)s1`, the figure is -0.29; as for `Cc1cccc(OCC(O)CN2C(C)(C)CC(O)CC2(C)C)c1C` (configuration not stated), 1.1; as for `O=C(CC1CCS(=O)(=O)C1)Nc1ccc[nH]c1=O` (configuration not stated), 0.248.
As for `O=C(NC(NCc1ccccc1)C(Cl)(Cl)Cl)c1cccnc1` (configuration not stated), the figure is -0.0249; as for `O=C(CCOc1ccccc1)Nc1ccccc1`, 0.347; as for `COc1cccc(C(=O)NCc2nnc(SCC(=O)Nc3nccs3)n2-c2ccccc2)c1`, 0.352.
Turning to `CCC(C)(C)n1nnnc1C(c1ccc(C)cc1)N1CCCC1` (configuration not stated), the z-score is -0.205.
Under `Cn1nc(C(=O)Nc2ccc(S(=O)(=O)N3CCCCC3)cc2)ccc1=O` stands 0.0197; under `Cc1cccc(C2CC(c3ccccc3)Nc3ncnn32)c1` (configuration not stated), -0.681; under `CCOC(=O)c1nc(N)sc1C(=O)OCC`, 0.00494.
Under `COc1ccccc1NC(=O)CN1CCN(c2ccccn2)CC1` stands 0.103; under `CC(=O)Nc1ccc(S(=O)(=O)NC2=C(N3CCN(c4ccc(F)cc4)CC3)C(=O)c3ccccc3C2=O)cc1`, -0.134; under `Nc1ccc2oc(-c3ccccc3Cl)nc2c1`, -0.165.
As for `CCOP(=O)(c1ccc(N(C)C)cc1)C(O)c1cc(OC)c(OC)c(OC)c1` (configuration not stated), the figure is 0.0659.
Consider `CC1CN(C(=O)Cn2cnc3c2c(=O)n(C)c(=O)n3C)CC(C)O1` (configuration not stated), for which the z-score was -0.083.
Under `Cc1ccc(NC(=O)C2=C(O)c3sccc3N(C)S2(=O)=O)cc1` stands -0.146.
On to `COc1ccc(/C=N/NC(=O)c2cccc(OC(F)(F)C(F)F)c2)c(OC)c1OC`, for which the z-score is -0.825.
Regarding `COc1ccc(S(=O)(=O)N2CCCCCC2)cc1N(C)S(=O)(=O)c1ccc(Cl)cc1`, the z-score was -0.418.
Under `CCOC(=O)C1=C(C)NC(C)=C(C(=O)OCC)C1` stands -0.207.
Under `CCOc1ccc(Br)cc1S(=O)(=O)Nc1ccc(C(=O)OC(C)C(=O)N(C)c2ccccc2)cc1` (configuration not stated) stands 0.235.
As for `CCOC(=O)/C(C#N)=C1/C=Nc2ccccc2N1`, the figure is -0.373; as for `CC(=O)Oc1ccc2c(=O)c(N3C(=O)c4ccccc4C3=O)c(C)oc2c1`, 0.0564; as for `O=C(Cn1ncc(Cl)c(Cl)c1=O)c1ccc(Cl)cc1`, -0.917.
The molecule `Cc1ccc(S(=O)(=O)N(C)c2ccc(OCC(=O)Nc3nc4ccccc4s3)cc2)cc1` displayed a z-score of 0.0641.
Under `COc1ccc(-c2c3c(=O)n(C)c(=O)n(C)c3cn2N2CCOCC2)cc1` stands -0.115.
Molecule `O=c1cc(CSc2nnnn2-c2ccccc2)nc2scc(-c3ccccc3)n12` yielded a z-score of -0.201.
As for `COC(C(=O)Nc1ccc(C(C)=O)cc1)c1ccccc1` (configuration not stated), the figure is 0.0497.
As for `Cc1ccc(C)n1NC(=O)c1ccco1`, the figure is 0.486; as for `Cn1c(SCC(=O)Nc2ccc(N3CCOCC3)c(Cl)c2)nnc1C(O)c1ccccc1` (configuration not stated), -0.431; as for `O=C(Nc1cc(C(F)(F)F)ccc1Cl)C(=O)N1CCCCC1`, -0.202.
Under `O=C(COC(=O)Cn1cnc2ccccc2c1=O)Nc1cc(Cl)ccc1[N+](=O)[O-]` stands -0.239; under `COC(=O)c1cccc(Nc2ncnc3ccc(C)cc23)c1`, 0.325.
For `O=S(=O)(Nc1nc2ccccc2nc1N1CCc2ccccc2C1)c1ccc(Br)cc1`, the z-score is 1.69.
Consider `CCOC(=O)c1[nH]c2ccc(F)cc2c1NC(=O)C(C)N1CCc2cc(OC)c(OC)cc2C1` (configuration not stated), for which the z-score is -0.63.
As for `O=C(/C=C/NNC(=O)c1ccccc1)c1ccccc1`, the figure is -0.131; as for `O=C(Cc1ccc(Cl)cc1)Nc1cccc(S(=O)(=O)Nc2ccccc2F)c1`, 0.371; as for `Oc1ccc(/C=C/c2nc(-c3ccccc3O)n(-c3ccccc3)n2)cc1`, -0.372.
Under `Cc1nnc(SCC(=O)NCc2cccs2)n1-c1ccccc1` stands -0.0136; under `COc1cccc(C(=O)NCCCN2CCN(CCCNC(=O)c3cccc(OC)c3)CC2)c1`, -0.114.
